About 14,000 (4.5%) of roughly 310,000 compounds showed an effect of 50% or more. Effects have a minus sign here. The list shows a part of the results.
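Also: peak tail current of the secondary pulse compared with the same well before compound.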

Sequence of human ether-à-go-go-related gene (hERG) potassium channel (Q12809 whole entry, looked up): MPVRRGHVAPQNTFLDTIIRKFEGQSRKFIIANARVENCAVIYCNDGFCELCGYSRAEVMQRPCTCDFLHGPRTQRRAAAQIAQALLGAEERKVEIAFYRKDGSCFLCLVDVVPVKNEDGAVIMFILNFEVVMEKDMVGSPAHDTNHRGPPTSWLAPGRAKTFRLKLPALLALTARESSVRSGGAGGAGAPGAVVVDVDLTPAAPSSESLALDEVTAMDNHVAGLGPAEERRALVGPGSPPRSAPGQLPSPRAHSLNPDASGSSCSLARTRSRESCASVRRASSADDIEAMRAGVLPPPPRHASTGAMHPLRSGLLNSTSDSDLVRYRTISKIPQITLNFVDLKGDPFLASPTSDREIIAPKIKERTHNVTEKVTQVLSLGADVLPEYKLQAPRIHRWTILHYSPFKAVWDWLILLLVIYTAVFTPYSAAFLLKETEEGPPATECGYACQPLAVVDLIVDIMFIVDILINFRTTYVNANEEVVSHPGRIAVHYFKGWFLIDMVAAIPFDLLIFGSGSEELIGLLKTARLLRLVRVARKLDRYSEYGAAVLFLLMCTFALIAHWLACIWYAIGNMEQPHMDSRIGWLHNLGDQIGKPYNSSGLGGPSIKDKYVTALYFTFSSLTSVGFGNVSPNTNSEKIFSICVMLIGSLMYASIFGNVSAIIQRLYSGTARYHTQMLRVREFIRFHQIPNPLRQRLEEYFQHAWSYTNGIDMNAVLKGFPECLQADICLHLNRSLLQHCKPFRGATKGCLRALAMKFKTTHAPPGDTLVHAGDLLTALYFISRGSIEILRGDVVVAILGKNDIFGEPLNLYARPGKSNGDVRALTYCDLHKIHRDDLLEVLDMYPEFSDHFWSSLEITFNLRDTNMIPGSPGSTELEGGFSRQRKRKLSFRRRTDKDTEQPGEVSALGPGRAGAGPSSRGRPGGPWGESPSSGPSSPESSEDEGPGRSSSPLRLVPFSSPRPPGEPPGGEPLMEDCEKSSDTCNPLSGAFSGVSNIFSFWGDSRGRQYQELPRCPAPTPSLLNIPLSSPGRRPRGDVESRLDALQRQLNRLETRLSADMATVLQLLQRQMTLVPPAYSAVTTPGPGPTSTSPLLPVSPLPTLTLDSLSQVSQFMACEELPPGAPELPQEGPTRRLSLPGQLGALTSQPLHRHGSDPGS

This assay has as its target human ether-à-go-go-related gene (hERG) potassium channel (human, UniProt Q12809). Description: primary screen, population patch clamp on CHO cells stably expressing hERG.
For `O=S(=O)(/N=C(/Nc1cc(N2CCOCC2)ncn1)c1ccccc1)c1ccccc1`, the “hERG current change (%, negative = inhibition) at 10uM” value is given as -9.71%.
To `Cc1nnc(SCc2ccc(F)cc2)n1NC/C=C/c1ccccc1` belongs -18.6%; to `O=C(CNC(=O)c1ccccc1F)NCCCN1CCCC1=O`, 3.07%.
In the case of `Cc1onc(-c2ccccc2)c1-c1csc(N/N=C/c2ccccc2)n1`, the “hERG current change (%, negative = inhibition) at 10uM” value is listed as 8.79%.
In the case of `Cc1cccc(NC(=O)c2ccc(C3SCC(=O)N3CCc3ccccc3)cc2)c1` (centres unmarked), the “hERG current change (%, negative = inhibition) at 10uM” value is listed as 11%.
To `O=C(Nc1nccs1)c1ccc(Br)c(S(=O)(=O)N2CCCC2)c1` belongs 7.98%; to `CC(C)=C(NC(=O)c1ccccc1)C(=O)Nc1cccc(C)c1`, 15.9%; to `COc1ccc(-c2cc(C(F)(F)F)n3nc(C(=O)N4CCC5(CC4)OCCO5)cc3n2)cc1OC`, -1.59%.
To `CC(=O)Nc1ccc(S(=O)(=O)N2CCN(C(=O)c3cccnc3)CC2)cc1` belongs -1.06%.
To `CCNc1nc(SCC(=O)Nc2ccc(Cl)c(Cl)c2)nc(N(C)C)n1` belongs 14.8%.
Consider `CCc1c(C)nc2c(OC)cccc2c1SCCC(=O)O`, for which the “hERG current change (%, negative = inhibition) at 10uM” value is listed as -1.31%.
To `Cc1cc2nc(/C=C/c3cccnc3)[nH]c2cc1C` belongs -11.6%; to `COc1cccc(C(=O)O[C@@H]2[C@H](Cc3ccccc3)NS(=O)(=O)[C@H]3C[C@@H]4C=C[C@]23O4)c1`, 5.45%.
The figure for `Cc1c(C(=O)O)sc2nc3n(c(=O)c12)CCCCC3` is 9.43%; for `Nc1nccc(/C=C/c2ccc(Cl)cc2)n1` it is 3.28%.
On to `Clc1cccc(N/N=C(\Cc2nc3ccccc3[nH]2)c2ccccc2)c1`, for which the “hERG current change (%, negative = inhibition) at 10uM” value came to 2.01%.
To `CCN(CC(=O)Nc1c(F)cccc1F)C(=O)c1ccc(Cl)c(S(=O)(=O)N2CCCC2)c1` belongs -1.4%.
On to `COC1CCN(C(=O)c2cc(COc3ccc(-n4cncn4)cc3)on2)CC1`, for which the “hERG current change (%, negative = inhibition) at 10uM” value was -18.6%.
The figure for `Cc1ccc(S(=O)(=O)N2Cc3ccccc3CC2C(=O)NC(C)(C)C)cc1` (centres unmarked) is 3.23%; for `N#C/C(=C\c1ccccc1[N+](=O)[O-])C(=O)NCc1ccccc1` it is -12.2%; for `Cc1cccc(C(=O)N2CCN(c3ccc(N4CCOCC4)nn3)CC2)c1` it is -25.3%.
To `CC(C)CN1CN(Cc2ccccc2)CNC1=S` belongs 3.53%; to `CCN1CCN(c2ccc(N=Cc3ccccc3O)cc2)CC1`, 18.2%; to `COC(=O)Cn1c(CN(C)Cc2ccccc2)nc2c1c(=O)n(C)c(=O)n2C`, 8.05%.
To `Cc1ccc(OCC(=O)N/N=C/C=C/c2ccco2)cc1` belongs -45.9%; to `COc1ccc(S(=O)(=O)NCCc2nnc3ccc(SCC(=O)Nc4cc(C)on4)nn23)cc1`, 8.97%; to `Cc1cc(C)c(S(=O)(=O)c2ccccc2C)c(Oc2ccccc2)n1`, -5.03%.
As for `CC(C(=O)N1CCCCC1)N(C)CC(=O)Nc1cccc(F)c1.O=C(O)C(=O)O` (centres unmarked), the “hERG current change (%, negative = inhibition) at 10uM” value is -3.44%.
As for `O=C(CC12CC3CC(CC(C3)C1)C2)NC(=S)N1CCCCC1`, the “hERG current change (%, negative = inhibition) at 10uM” value turned out to be 26.6%.
Take `COc1ccc(C2N(c3cc(Cl)ccc3OC)C(=O)C3CCCN32)cc1` (centres unmarked): the “hERG current change (%, negative = inhibition) at 10uM” value is 2.87%.
The figure for `Cc1ccc(S(=O)(=O)NC(C)(C)CN2CCNCC2)cc1` is -9.34%; for `CCCCN1Cc2cc(C(=O)c3cc(F)ccc3O)cnc2NC1=O` it is -19.9%.
To `CCSc1nnc(NC(=O)c2cccc(S(=O)(=O)N(C)c3ccc(C)cc3)c2)s1` belongs 0.388%.
Consider `CCOc1cc(N2CCOCC2)c(OCC)cc1NC(=O)COC(=O)CCn1c(C)csc1=O`, for which the “hERG current change (%, negative = inhibition) at 10uM” value is -48.9%.
To `Cc1cc(C)c(C)c(S(=O)(=O)NC(C)C(=O)O)c1C` (centres unmarked) belongs 13.2%; to `Cn1nccc1C(=O)Nc1ccc(OC(=O)c2ccnn2C)cc1`, -6.68%; to `Cc1ccc(C)c(OCc2n[nH]c(=S)o2)c1`, 10%.
Regarding `COc1ccc(CN2C(=O)c3ccccc3C2C(=O)NC2CCC(C)CC2)c(OC)c1` (centres unmarked), the “hERG current change (%, negative = inhibition) at 10uM” value turned out to be 12.6%.
Consider `COc1ccc(CNCCNC(=O)c2cccs2)c(OC)c1OC`, for which the “hERG current change (%, negative = inhibition) at 10uM” value is -1.32%.
For the molecule `Cc1ccc2nc(Cl)c(/C=C/C(=O)c3ccco3)cc2c1`, the “hERG current change (%, negative = inhibition) at 10uM” value is on record as 9.73%.
The figure for `CCN1CCN(CCCNC(=O)CS(=O)(=O)Cc2nc(-c3ccccc3C)oc2C)CC1` is 14.7%; for `O=C(NNC(=O)c1csc(N2CCOCC2)n1)c1ccc(=O)[nH]c1` it is 6.26%.
To `CCCNC(=O)c1ccc(N2CCC3(CC2)CC(c2ccccc2)=NO3)c(NC(=O)Cc2ccc(F)cc2)c1` belongs -23.9%; to `COc1ccc(Cn2c(C)nc3ccc([N+](=O)[O-])cc3c2=O)cc1`, -20%.
To `CCS(=O)(=O)N1CCC(C(=O)NCCCOC)CC1` belongs 10.4%.
Take `COc1cccc(NC(=O)Cn2nnc(C(=O)Nc3cc(Cl)ccc3OC)c2N)c1`: the “hERG current change (%, negative = inhibition) at 10uM” value was found to be 28.8%.
The figure for `O=c1c2c(-c3cccs3)csc2[nH]c(=S)n1-c1ccccc1` is 8.87%; for `O=C(CN1CCN(S(=O)(=O)N2CCCCC2)CC1)Nc1cc(Cl)ccc1Cl` it is 10.7%; for `COc1ccc(-c2csc(N(CCCN(C)C)C(=O)c3ccc(F)cc3)n2)cc1.Cl` it is -58.1%.
To `COc1ccc(CN(CC(=O)NCc2ccccc2)C(=O)CCC(=O)Nc2ccccn2)cc1` belongs -21.1%.
Consider `Cc1cccc(-c2ccc3ncnc(NCc4cccnc4)c3c2)c1`, for which the “hERG current change (%, negative = inhibition) at 10uM” value is -70.5%.
To `CCCCCCC1CC(C)(/C(C)=N/NC(N)=O)OC1=O` (centres unmarked) belongs -50.1%.
Take `CCNC(=O)CSc1ncnc2sccc12`: the “hERG current change (%, negative = inhibition) at 10uM” value is given as 4.15%.
As for `O=C(Cn1cc(C(F)(F)F)ccc1=O)Nc1cccc(S(=O)(=O)N2CCOCC2)c1`, the “hERG current change (%, negative = inhibition) at 10uM” value was -16.7%.
To `COc1ccc(CCNC(=O)c2c(C)nn(-c3ccccc3)c2Cl)cc1` belongs 0.818%; to `N#CC1=C(N)Oc2cc(N)ccc2C1C1CC=CCC1` (centres unmarked), -10.7%.

These data come from publication PMC4336329 (PLoS ONE, 2015).
